To fix the notation:
B1: CPEB3 Ribozyme (parent)
chain: UAACAGGGGGCCACAGCAGAAGCGUUCACGUCGCAGCCCCUGUCAGAUUCUGGUGAAUCUGCGAAUUCUGCUGUAUAUCUC

Read counts are not given, so values of variants with three or more changes are uncertain.

This data set covers variants of B1. Briefly: self-cleavage, relative activity (ratio to wild type); higher = more cleavage; in vitro, sequencing. In outline: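 Relative activity compares each variant's cleaved/total read fraction with that of the unmutated ribozyme. To get these fractions, barcoded CPEB3 ribozyme libraries from rounds of error-prone PCR were transcribed with T7 RNA polymerase for 5 hours at 37°C and then given 15 min of DNase I treatment before EDTA was added. The RNAs were reverse transcribed with template switching and sequenced on Illumina, and DNA sequencing linked barcodes to variants. A minimum of 5 reads applied, and three batches were averaged.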
Consider A3G A35G U60C A64G A65G U66C, for which the self-cleavage was found to be 0.4.

For the variant A3G A21G U48C U76C, the self-cleavage is 0.6.

On to A3G C11G A18U U51C A64G, for which the self-cleavage stood at 0.11.

With A3G A28G U31G U49C U74C, the self-cleavage worked out at 0.14.

As to A3G C4U A15G U41C G55U A77G, the self-cleavage was 0.62.

On to A3G A21G G24U A28U C40U A45U U51C, for which the self-cleavage was 0.08.

Turning to A3G A21G A45C U48C A65G U69A, the self-cleavage came out at 0.22.

Consider A3G A45U U72A, for which the self-cleavage came to 0.23.

Consider A3G C11G A35G A56U U67C C71U C79A, for which the self-cleavage turned out to be 0.1.

Take A3G A28G A45U U51C U72C: the self-cleavage came out at 0.68.

In the case of A3G A21G U66A, the self-cleavage worked out at 0.5.

Regarding A3G C14G U49C G61A A77C U78C, the self-cleavage turned out to be 0.11.

For A3G A21G U43C, the self-cleavage was 0.42.

As for A3G A47G A64G, the self-cleavage was found to be 0.61.

For the variant A3G C12G U78G, the self-cleavage was found to be 0.4.

As for A3G A45G U58A U67C, the self-cleavage was 0.13.

As to A3G A20U A64G, the self-cleavage was determined as 0.5.

Consider A3G A56C G73A A75G U80C, for which the self-cleavage turned out to be 1.27.

As for A3G A21G U58C, the self-cleavage was 0.39.

A3G A35G A57G: the self-cleavage was 1.23.

With A3G A35G U41A U67A, the self-cleavage is 0.09.

As to A3G C4U C29U, the self-cleavage amounted to 0.41.

Take A3G A21G C40G U41C U48C: the self-cleavage turned out to be 0.44.

In the case of A3G A20U U41A U54C A75G U78G, the self-cleavage turned out to be 0.08.

A3G A47G A64U C68A: the self-cleavage is 0.14.

As for A3G A20U U76A, the self-cleavage is 0.43.

Take A3G A28U U48A U51A: the self-cleavage is 0.17.

Consider A3G A35U U66C U67C, for which the self-cleavage is 0.44.

Turning to A3G C23U U41A A57G A64U, the self-cleavage came out at 0.12.

On to A3G A28G U43C U67G, for which the self-cleavage is 0.45.

As to A3G A47G U51A A56U A77G, the self-cleavage turned out to be 0.28.

In the case of A3G A28G U43G U54C C62A, the self-cleavage came out at 0.

For A3G A65G U72A A75G, the self-cleavage came out at 0.83.

Turning to A3G A45U U66G A75G, the self-cleavage is 0.24.

For the variant A3G A21U U31C, the self-cleavage came to 0.4.

Turning to A3G C12A G30A U41C U49C U78C, the self-cleavage was 0.06.

As to A3G C4U A15G G33A U41C G46U, the self-cleavage stood at 0.19.

As for A3G A20G U41C U43C U60C, the self-cleavage amounted to 0.37.

For the variant A3G A20U A56C G63A U67A, the self-cleavage worked out at 0.66.

With A3G A28U A64G U67C U80C, the self-cleavage was 0.16.

On to A3G C14U U31C C40G G63A A64U, for which the self-cleavage turned out to be 0.06.

Regarding A3G C12U U25C U49C A65U, the self-cleavage amounted to 0.05.

For the variant A3G A45G U49C U60C G70A U78C, the self-cleavage stood at 0.24.

On to A3G A57G A64G A65G, for which the self-cleavage was found to be 0.27.

On to A3G A35G U49C U60G A64U, for which the self-cleavage is 0.2.

As for A3G A56G A64G, the self-cleavage stood at 1.03.

Regarding A3G A56U A57G, the self-cleavage amounted to 0.33.

For the variant A3G A35C G55C, the self-cleavage was 0.34.

For the variant A3G A65G U80C, the self-cleavage was found to be 0.64.

In the case of A3G A20U U49C U66C U78C, the self-cleavage is 0.25.

For the variant A3G A35U U41C A45U U80C, the self-cleavage was determined as 0.23.

As to A3G C12U A13G A21G A64G A75U, the self-cleavage was 0.11.

On to A3G A21G U67C, for which the self-cleavage came out at 0.45.

A3G C11G U41A U60A: the self-cleavage came out at 0.42.

For the variant A3G A35G U41C A56G, the self-cleavage was found to be 1.22.

For the variant A3G C12G C17G A20G G22U A28G, the self-cleavage turned out to be 0.09.

Regarding A3G A57U U66A, the self-cleavage amounted to 0.33.

On to A3G A28G U31C U66G, for which the self-cleavage stood at 0.15.

For A3G C23U U25C A35G U78C, the self-cleavage was 0.1.

As to A3G A35G A56U U69A U78C U80A, the self-cleavage is 1.11.

As for A3G A57G A64U U66C, the self-cleavage was 0.31.

As to A3G A28G U66G, the self-cleavage turned out to be 0.5.

Turning to A3G A20U U51A, the self-cleavage stood at 0.55.

As to A3G C12U A15U U54C U80C, the self-cleavage came to 1.27.

For the variant A3G C17G A35U U78C, the self-cleavage stood at 0.08.

Consider A3G C4U A13G U69A A75G, for which the self-cleavage was 0.41.

On to A3G A20U U51A A65G U67A C68G, for which the self-cleavage was 0.11.

In the case of A3G C12A A15C U25C A56U U67A U80C, the self-cleavage turned out to be 0.06.

With A3G C12U U25C U41A G70A, the self-cleavage worked out at 0.09.

As to A3G A45G A47G U51A A56G A57G A75G, the self-cleavage was 0.3.

For A3G A21G U41A U72C U76C U78C, the self-cleavage stood at 0.15.

Regarding A3G C27U U41A, the self-cleavage was found to be 0.39.

Regarding A3G A28G A35G U48C, the self-cleavage turned out to be 0.81.

Take A3G A21G U31C U41A G53U: the self-cleavage was found to be 0.23.

With A3G A65U U72A, the self-cleavage worked out at 0.44.

As for A3G C27U U41A U54C U76C, the self-cleavage was 0.24.

Turning to A3G C12G U54C A56G U78C, the self-cleavage amounted to 0.43.

As for A3G C11A A18U, the self-cleavage was 0.11.

As to A3G A21G U26C, the self-cleavage worked out at 0.68.

For A3G A21G U26C A35G A75G, the self-cleavage was 0.77.

In the case of A3G A56G C59U U69C, the self-cleavage was found to be 0.15.

As for A3G A47G U51A, the self-cleavage amounted to 1.05.

For A3G A35U G36A U54C, the self-cleavage amounted to 0.11.

Consider A3G A45G U60A, for which the self-cleavage worked out at 0.4.

(Values after the RNAGym collection of RNA variant scans (doi:10.1093/nar/gkz1192).)
